Measured values reported in ChEMBL document CHEMBL4888484, “Replenishing the malaria drug discovery pipeline: Screening and hit evaluation of the MMV Hit Generation Library 1 (HGL1) against asexual blood stage Plasmodium falciparum ,using a nano luciferase reporter read-out” (2022).
Among all 150,000 compounds or so, about 540 (0.36%) showed an effect of 50% or more. Some of the results follow.

These molecules were tested on Plasmodium falciparum (assay: Primary screen in NF54 nanoGlo assay, in single point, at 2uM, 72h; a lower Z score goes with more inhibition). Details: timepoint 72 hour.
Assay type: functional, Erythrocyte

SMILES | % Inhibition [%] | Z score
Cc1c(C(=O)NC[C@H]2Cc3ccccc3O2)nnn1C(C)C | 7 | -0.93
Cc1ccc(C(=O)N2CC3(C[C@H](N4CCCCC4)CO3)C2)cc1C | -7 | 1.07
Cc1ccc(N(CCC#N)C(=O)COC(=O)C2CCN(S(=O)(=O)c3ccc(C)c(C)c3)CC2)cc1 | -15 | 1.46
CNC(=O)CN1CCC(CN(C)c2cc(C)nc(C3CC3)n2)CC1 | -5 | 0.67
C#CCNS(=O)(=O)c1cnc(C(F)(F)F)c(C(=O)OCC)c1 | -20 | 2.81
Cc1nc(-c2ccccc2C(=O)O)c2ccsc2n1 | 5 | -0.84
COCCOCC(=O)N1CCC(n2c(C)cnc2COC)CC1 | -8 | 1.08
COCc1nc2c(s1)CN(C(=O)c1ccc(OC)cc1)CC2 | -10 | 1.36
CCCC(C)C(=O)N[C@H]1CCO[C@@H]1c1cc[nH]n1 (stereo partly drawn) | 2 | -0.22
CC(C)Cc1cc(CNC(=O)c2ccc([C@H](C)N3CCCCC3)o2)on1 | -6 | 0.72
C[C@@H](CN(C)c1ncncc1-c1ccccc1)C(=O)O | -1 | 0.09
c1cnn(Cc2ccc(CN3CC(c4ccncc4)C3)cc2)c1 | -7 | 1.28
O=C(NC1CCN(C2CCCCC2O)CC1)c1csc(Cl)c1 (stereo not drawn) | -3 | 0.45
Cn1c(N2CCN(c3ccccn3)CC2)nc2c1c(=O)n(Cc1ccc(Cl)cc1)c(=O)n2C | 36 | -0.76
CC(=O)NCCC(=O)N1CCC[C@H](C)C1 | 6 | -0.67
Cc1noc([C@H](C)NC(=O)Nc2cc(N3CCOC3=O)ccc2F)n1 | 2 | -0.26
Cn1ncc(Cn2ncn(C)c2=O)c1C(F)(F)F | 1 | -0.15
CC(=O)N1C[C@H](NC(=O)C(F)(F)F)CC[C@H]1C(F)(F)F | -4 | 0.52
O=C(CN1N=C(c2ccccc2)c2ccccc2S1(=O)=O)Nc1ccccc1C(F)(F)F | 6 | -0.53
c1ccc(CNCCc2cccc3c2NCCC3)cc1 | -9 | 1.09
CCC(C)(NC(=O)c1ccccn1)C(=O)NC(/C=C/c1ccc(Cl)cc1Cl)C(C)(C)C (stereo not drawn) | 6 | -0.71

SMILES | % Inhibition [%] | Z score
COc1ccc2c(c1)OC[C@]1(CO)CN(Cc3ncc[nH]3)C[C@H]21 | -1 | 0.25
COc1c2c(c(S(=O)(=O)NCCc3c[nH]c4ccccc34)c3c1C(=O)N(C)CC3)OCO2 | -4 | 0.52
COCCn1cnc2ccc(NC(=O)c3cn(CCOC)c(=O)c4ccccc34)cc2c1=O | 3 | -0.43
O=C1c2ccccc2[C@](O)(c2ccccc2)N1c1ccc(N2CCOCC2)cc1 | -2 | 0.18
O=C(Nc1cccc(Br)c1)N1CCC(n2cnc3cccnc32)CC1 | 3 | -0.42
Cc1ccc(-c2nnc(NC(=O)N(C)Cc3cccnc3)s2)cc1 | -5 | 0.65
N#Cc1ccc(OCCN2CCN(c3nccs3)CC2)cc1 | 1 | -0.22
CN(C)c1ncnc2c1cc(C(=O)N1CC[C@@H]3CCC[C@@H]31)n2C | -13 | 2.38
CC(C)(C)n1nc(-c2ccccc2)nc1CCN1CCC(C(N)=O)CC1 | -17 | 2.03
CCc1nn(C)cc1C(=O)NS(=O)(=O)Cc1ccc2c(c1)COC2 | 9 | -1.33
CCc1sc([C@H](C)NC(=O)Cn2cc(CO)nn2)cc1C | -4 | 0.62
Cc1cccc(-c2cnc(NC(=O)COC3CCN(C)CC3)s2)c1 | -9 | 1.37
C#CCN(Cc1ccco1)Cc1nc(-c2ccc(OC)c3ccccc23)oc1C | -14 | 1.52
COc1cc(NC(=O)CCc2c(-c3ccc(Cl)cc3)nc3ccccn23)cc(OC)c1OC | 6 | -0.79
O=C(c1ccsn1)N1CCC(O)(Cc2ccc(F)cc2)CC1 | 6 | -0.68
C[C@H](Oc1cccnc1)C(=O)N1CCC(c2c[nH]c3ccccc23)CC1 | -2 | 0.43
COc1cc(CN2C[C@H]3CC[C@@H](C2)N(C)C3)ccc1OCC=C(C)C | -19 | 1.65
CS(=O)(=O)N1CCC[C@H]1c1noc(CCC(=O)NC2CC2)n1 | -4 | 0.42
CC[C@@H]1Oc2ccc(NC(=O)Cc3cccs3)cc2CN(Cc2cccc(OC)c2)C1=O | -1 | 0.11
NS(=O)(=O)c1ccc(-n2ccnc2-c2ccc(O)c(C(=O)O)c2)cc1 | -20 | 2.29
CN1CCC(C(=O)NC2CC2c2ccccc2)CC1=O (stereo not drawn) | 2 | -0.37

SMILES | % Inhibition [%] | Z score
CCCN(CC(=O)O)c1nc(C(F)(F)F)cs1 | -1 | 0.21
O=C(NCC(O)COCC1CC1)NC1CCCC(C2CC2)C1 (stereo not drawn) | -6 | 1.06
O=C(NCCCNC(=O)c1ccc(-c2cccc(Cl)c2Cl)o1)c1cnccn1 | -17 | 1.85
CCN(Cc1cc(C(F)(F)F)ccc1C)[C@@H](C)CCO | -2 | 0.46
Cc1nc(C(=O)Nc2nc(C3CCN(C(=O)OC(C)(C)C)CC3)nn2C)co1 | 19 | -2.39
CCc1ccc([C@@H]2CCCCN2CC(=O)N2CC(=O)Nc3ccccc32)o1 | -6 | 0.98
Cc1sccc1C(=O)N1CCC[C@@]12CCOC2 | 17 | -2.13
CC[C@H]1CN(Cc2cc(-c3ncccn3)ccc2OCC(=O)O)CCN1C | -5 | 0.83
Cc1noc(CCCc2nc([C@@H]3CCCCCN3)no2)n1 | -16 | 2.56
O[C@@H]1C[C@@H](c2nnc3n2CCN(Cc2ccc4c(c2)CCO4)C3)N(Cc2ccccc2)C1 | -16 | 2.08
O=C(C(NC1CC1c1ccccc1)c1ccccc1)N1CCCCC1 (stereo not drawn) | -3 | 0.26
COC(=O)Nc1ccccc1OCC(=O)Nc1ccc(N2CC(C)OC(C)C2)cc1 (stereo not drawn) | -5 | 0.86
CC(C)CN1CCN2C(=O)[C@H](C)N(C(=O)COc3ccc(F)cc3)C[C@H]2C1=O | -26 | 2.31
NC(=O)c1cccc(CNC2(c3ccccc3)CCC2)c1 | -2 | 0.2
COc1cccc(C(=O)N2CCN(c3ccc(NC(=O)c4ccc(F)cc4F)cn3)CC2)c1 | -13 | 1.74
CN1C/C(=N/S(=O)(=O)c2ccccc2)N(C)C1=O | -6 | 0.83
Cc1nnc(CN(C)CC(=O)N2CCCCC[C@@H]2CC(C)C)n1C | -16 | 1.7
Cc1nn(-c2ccc(-c3noc(C4CC4)n3)cc2)cc1C(=O)Nc1cc(F)ccc1F | -11 | 2.09
O=C(c1csc2c1CCCC2)N1CCN(c2cnccn2)CC1 | 7 | -1.35
CC(C)(C)CC(CCNC1(CO)CCOC1)NC(=O)OC(C)(C)C (stereo not drawn) | -2 | 0.46
Cc1ccc(NS(=O)(=O)c2cc(C(=O)N3CCOCC3)cs2)cc1C | -14 | 1.39

SMILES | % Inhibition [%] | Z score
CCN(CC)Cc1oc2ccc(Cl)cc2c1-c1ccc(OC)cc1 | -5 | 0.76
Cc1cc(Br)cc(C)c1OCCCN(C)C | -4 | 0.73
O=C(CN1CCN(S(=O)(=O)c2ccc(F)cc2)CC1)NCC1(N2CCOCC2)CCCCC1 | -44 | 5.2
Cc1nc2ncc(-c3ccc(N4CCOCC4)cc3)cn2n1 | 8 | -1.14
NC(=NOCc1ccccc1F)c1ccccc1CN1CCCCC1 | -2 | 0.29
CCOc1ccc(S(=O)(=O)N2CCC(c3nncn3C(C)C)CC2)cc1 | -15 | 1.75
Cc1ccc(S(=O)(=O)NCC(=O)OCC(=O)N2CCNC2=O)cc1C | -12 | 1.86
COc1ccccc1N1CCC(N2C(=O)[C@@H]3CCCN3C2=O)C1=O (stereo partly drawn) | -10 | 1.32
Cc1ccc2nc(-c3ccccc3F)c(NC(=O)Nc3cccc(C(F)(F)F)c3)n2c1 | -9 | 1.47
O=C1N[C@@H](C2CCCCC2)C(=O)N[C@@H](Cc2ccccc2)C(=O)NCc2cn(nn2)CCOc2ccc(Cl)cc21 | -5 | 0.91
COc1ccc(O)c(-c2ccnc3c(C(=O)Nc4ccccn4)cnn23)c1 | 2 | -0.21
O=S(=O)(NCc1ccsc1)c1cccnc1 | -20 | 2.9
CCC(CC)C(=O)Nc1cc(OC)cc(OC)c1 | -2 | 0.33
O=C(C1CCN(c2nc3cccnc3s2)CC1)N1CCC(N2CCCCC2)CC1 | -19 | 1.67
COCCCOC1CN(C(=O)NC2CCCCC2)C1 | 2 | -0.36
O=C(NCc1cccc(N2CCCC2)c1)c1cncnc1 | 0 | 0.06
O=C(CN(CC(=O)NC1CC1)C1CCCCC1)NC1CC1 | 14 | -1.9
CCn1ncc2c1CCCC2NC(C)C(=O)NC(C)c1ccccc1 (stereo not drawn) | -7 | 0.66
CCn1cc(CNc2nncn2-c2ccccc2)cn1 | 4 | -0.61
COc1nsc(CNC(=O)Nc2ccn(C)n2)c1Br | 16 | -1.9
O=C(C[C@H]1COCCN1C(=O)c1ccc(Cl)o1)c1ccco1 | 5 | -0.78
